Test results published in the supplement of paper PMC8007513.
Structures can show the parent of a compound that is named as a salt. ± gives the standard error. Among all 1,300 compounds or so, about 75 (6%) showed an effect of 50% or more. The list shows a part of the results.

Tested on: Trichoderma virens ATCC 9645
Assay: growth yield (OD600) relative to untreated control; higher = less growth inhibition
Settings: compound concentration: 100 uM
Outline: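 Trichoderma virens ATCC 9645 spores at 15,000 spores ml^−1 in potato dextrose broth were exposed in 96-well plates to library compounds at 100 μM final, with or without a biocide at 200 ng ml^−1. After growth at 30 °C, OD600 was read at 40 h and 72 h. Values are growth relative to the control without either agent, averaged over duplicate screens.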

Compound | growth yield (40 h) [%] | growth yield (72 h) [%]
CN(Cc1cnc2nc(N)nc(N)c2n1)c1ccc(C(=O)N[C@@H](CCC(=O)O)C(=O)O)cc1 (racemic) [Amethopterin (R,S)] | 92.4 ± 0.95 | 94.08 ± 0.1
O=C(COc1ccc(Cl)cc1)N1CCN(Cc2ccc3c(c2)OCO3)CC1 [Fipexide hydrochloride] | 94.8 ± 1.4 | 102 ± 1.1
CNC(C)CCC=C(C)C (stereo unspecified) [Isometheptene mucate] | 99.1 ± 3.8 | 96.2 ± 4.3
CCOC(=O)c1ccc(N)cc1 [Benzocaine] | 91.33 ± 0.48 | 86.6 ± 1.5
OC(CCCN1CCCCC1)(c1ccccc1)c1ccccc1 [Diphenidol hydrochloride] | 95.14 ± 0.79 | 98.6 ± 3.1
CCN(CC)CCOC(=O)C(c1ccccc1)c1ccccc1 [Adiphenine hydrochloride] | 98.8 ± 7.6 | 96.9 ± 5.5
C[C@]12CC[C@@H]3c4ccc(OS(=O)(=O)O)cc4CC[C@H]3[C@@H]1CCC2=O [Estropipate] | 93.9 ± 2.1 | 91.87 ± 0.42
COc1cccc(OC)c1C(=O)N[C@@H]1C(=O)N2[C@@H]1SC(C)(C)[C@@H]2C(=O)O [Methicillin sodium] | 110 ± 2.1 | 104 ± 1.8
Cc1ccc(S(=O)(=O)NC(=O)NN2CCCCCC2)cc1 [Tolazamide] | 101 ± 2.2 | 103 ± 1.4
Nc1ccc(S(=O)(=O)Nc2ccccn2)cc1 [Sulfapyridine] | 98.6 ± 3 | 97.7 ± 2.5
Nc1ccn([C@@H]2O[C@H](CO)[C@@H](O)[C@@H]2O)c(=O)n1 [Cytarabine] | 96.9 | 99.84 ± 0.84
COc1ccnc(C[S+]([O-])c2nc3cc(OC(F)F)ccc3[nH]2)c1OC (stereo unspecified) [Pantoprazole sodium] | 88.2 ± 6.2 | 94 ± 3.8
C[C@@H]1C[C@H]2[C@@H]3C[C@H](F)C4=CC(=O)C=C[C@]4(C)[C@@]3(F)[C@@H](O)C[C@]2(C)[C@@]1(O)C(=O)COC(=O)C(C)(C)C [Flumethasone pivalate] | 106 ± 7.2 | 104 ± 5.3
CCOc1ccccc1OC(c1ccccc1)C1CNCCO1 (stereo unspecified) [Reboxetine mesylate] | 99 ± 3.6 | 98 ± 4.6
CN(C)CCCN1c2ccccc2Sc2ccc(Cl)cc21 [Chlorpromazine hydrochloride] | 68.8 ± 2.1 | 86.52 ± 0.32
COc1ccc(CC2c3cc(OC)c(OC)cc3CC[N+]2(C)CCC(=O)OCCCCCOC(=O)CC[N+]2(C)CCc3cc(OC)c(OC)cc3C2Cc2ccc(OC)c(OC)c2)cc1OC (stereo unspecified) [Atracurium besylate] | 102 ± 4 | 98.7 ± 3.5
CC(=O)[C@H]1CC[C@H]2[C@@H]3CC=C4C[C@@H](O)CC[C@]4(C)[C@H]3CC[C@]12C [Pregnenolone] | 93.6 ± 2.7 | 94.9 ± 2

Compound | growth yield (40 h) [%] | growth yield (72 h) [%]
CCN(CCO)CCCC(C)Nc1ccnc2cc(Cl)ccc12 (stereo unspecified) [Hydroxychloroquine sulfate] | 108 ± 6.2 | 108 ± 5.2
CCCCN1CCCCC1C(=O)Nc1c(C)cccc1C (stereo unspecified) [Bupivacaine hydrochloride] | 102 ± 1.3 | 103 ± 1.3
CCOC(=O)NNc1nncc2ccccc12 [Todralazine hydrochloride] | 99.6 ± 3 | 94.39 ± 0.21
CC(C)(C)c1ccc(C(O)CCCN2CCC(C(O)(c3ccccc3)c3ccccc3)CC2)cc1 (stereo unspecified) [Terfenadine] | 90.2 | 96.9
CC(COc1ccccc1)NC(C)C(O)c1ccc(O)cc1 (stereo unspecified) [Isoxsuprine hydrochloride] | 101 ± 1.1 | 98.6 ± 2.3
O=c1cc(-c2ccc(O)c(O)c2)oc2cc(O)cc(O)c12 [Luteolin] | 100 ± 4.8 | 97 ± 4.5
CC(C)(C(=O)c1cccnc1)c1cccnc1 [Metyrapone] | 91 ± 3 | 88.4 ± 2.6
CC(C)(S)C(N)C(=O)O (racemic) [D,L-Penicillamine] | 95 ± 3.2 | 94.39 ± 0.84
CC(=O)N(O)CCCCCNC(=O)CCC(=O)N(O)CCCCCNC(=O)CCC(=O)N(O)CCCCCN [Deferoxamine mesylate] | 106 ± 4.8 | 104 ± 3.2
O=C1Cc2cc(CCN3CCN(c4nsc5ccccc45)CC3)c(Cl)cc2N1 [Ziprasidone  Hydrochloride] | 107 ± 2.1 | 109 ± 2.9
CC(C)/N=c1\cc2n(-c3ccc(Cl)cc3)c3ccccc3nc-2cc1Nc1ccc(Cl)cc1 [Clofazimine] | 90.1 ± 3.3 | 116 ± 8.6
CCN[C@H]1C[C@H](C)S(=O)(=O)c2sc(S(N)(=O)=O)cc21 [Dorzolamide hydrochloride] | 99.3 ± 5.6 | 92.7 ± 6.7
CO[C@@]1(NC(=O)CSCC#N)C(=O)N2C(C(=O)O)=C(CSc3nnnn3C)CS[C@@H]21 [Cefmetazole sodium salt] | 99 ± 4.6 | 95.1 ± 4.3
C[C@@H]1[C@H](O)[C@@H](C)/C=C/C=C/C=C/C=C/C=C/C=C/C=C/[C@H](O[C@@H]2O[C@H](C)[C@@H](O)[C@H](N)[C@@H]2O)C[C@@H]2O[C@](O)(C[C@@H](O)C[C@@H](O)[C@H](O)CC[C@@H](O)C[C@@H](O)CC(=O)O[C@H]1C)C[C@H](O)[C@H]2C(=O)O [Amphotericin B] | 132 | 118
CCOC(=O)C(C)(C)Oc1ccc(Cl)cc1 [Clofibrate] | 92.3 ± 1.1 | 93.3 ± 2.5
CC(C)NC[C@H](O)COc1ccc(CC(N)=O)cc1 [(S)-(-)-Atenolol] | 100 ± 1.6 | 101 ± 1.5
